Measurements from US20260041674A1, “METHODS AND COMPOSITIONS FOR MODULATING THE ACTIVITY OF A DIMERIZING AGENT REGULATED IMMUNOMODULATORY COMPLEX” (Seattle Children’s Hospital d/b/a Seattle Children’s …, priority 2021, published 2026).
Read-outs that look alike come from different tables or passages of the source.

Columns and labels:
[1] = Plasma protein binding, human plasma (K2EDTA); type: in vitro ADME
in vivo = conditions: mouse, whole blood, intraperitoneal, 0.01 mg/kg
[2] = cited from earlier work
[3] = Rapamycin pharmacokinetics in tumor-naive mice (LC MS/MS whole blood assay); type: in vivo; conditions: for Cmin / Tmin / Tmax / half-life / AUC / concentration at 48 h / Cmax: whole blood, IP 3 times weekly; for Tmax / half-life / AUC / concentration at 48 h / Cmax: mouse, ip; for AUC: read-out: AUC-T0-48; for concentration at 48 h: read-out: C48 h
Procedure: (J Chromatogr B Biomed Sci Appl, 1998 Nov. 6; 718(2)251-7). […] Upper limit of quantitation (ULOQ=200 ng/mL) and lower limit of quantitation (LLOQ=1 ng/mL) are indicated.

[4] = Protein binding in 10% NSG mouse plasma (K2EDTA); type: in vitro ADME; conditions: Rapamycin (2 mM); for fraction unbound at 2 mM: NSG, mouse
[5] = Whole blood rapamycin concentration in xenografted and treated mice
[6] = Red blood cell partitioning in NSG mouse whole blood (K2EDTA); type: in vitro ADME
clinical = conditions: human, blood, po, 0.75 mg
[7] = Plasma protein binding, NSG mouse plasma (K2EDTA); type: in vitro ADME
plasma protein = assay: Plasma protein binding, NSG mouse plasma (K2EDTA); type: in vitro ADME; conditions: NSG, mouse, plasma (K2EDTA); mice
[8] = patients; cited from earlier work
[9] = for trough levels vs target range 1.5-3 ng/mL: 3 mg
[10] = Plasma protein binding, CD-1 mouse plasma (K2EDTA); type: in vitro ADME
[11] = Rapamycin (2 mM), human plasma (K2EDTA)
[12] = mice, 0.02 mg/kg, analysis day 1
[13] = mice, 0.02 mg/kg, analysis day 19
[14] = mice, 0.05 mg/kg, analysis day 1
[15] = mice, 0.05 mg/kg, analysis day 19
[16] = mice, 0.1 mg/kg, analysis day 1
[17] = mice, 0.1 mg/kg, analysis day 19
[18] = 0.02 mg/kg, mice, 0.02 mg/kg, analysis day 1
[19] = 0.02 mg/kg, mice, 0.02 mg/kg, analysis day 19
[20] = 0.05 mg/kg, mice, 0.05 mg/kg, analysis day 1
[21] = 0.05 mg/kg, mice, 0.05 mg/kg, analysis day 19
[22] = 0.1 mg/kg, mice, 0.1 mg/kg, analysis day 1
[23] = 0.1 mg/kg, mice, 0.1 mg/kg, analysis day 19
[24] = Rapamycin (2 mM), NSG mouse plasma (undiluted, K2EDTA)
[25] = Rapamycin (2 mM), CD-1 mouse plasma (K2EDTA)

## CO[C@H]1C[C@@H]2CC[C@@H](C)[C@@](O)(O2)C(=O)C(=O)N2CCCC[C@H]2C(=O)O[C@H]([C@H](C)C[C@@H]2CC[C@@H](O)[C@H](OC)C2)CC(=O)[C@H](C)/C=C(\C)[C@@H](O)[C@@H](OC)C(=O)[C@H](C)C[C@H](C)/C=C/C=C/C=C/1C [Rapamycin, rapamycin]
[1]; [11]
  % Protein Bound (Mean ± SD): 93.90 ± 0.82%
  % Protein Free (Mean ± SD): 6.10 ± 8.20%
  % Stability in Matrix (2.5 hours): 76.07%
[1]; human, plasma (K2EDTA), read-out: Fu Unbound Fraction (Mean ± SD)
  fraction unbound at 2 mM: 0.061 ± 0.0082
In vivo
  concentration at 2 h: 2.65 ± 1.98 ng/mL
[2]; human plasma
  protein bound in human plasma: 92%
[2]; humans
  rapamycin bound to RBCs: 94.5%
  rapamycin found in plasma: 3.1%
[3]; mice, IP, 0.02 mg/kg
  Peak rapamycin concentration: 10 ng/mL
[3]; mice, IP, 0.1 mg/kg
  Peak rapamycin concentration: ~100 ng/mL
[3]; mice, IP, 0.02-0.1 mg/kg
  dose proportionality of blood concentrations: generally dose proportional
[3]; [12]
  Cmin: 1.13 ng/mL
  Tmin: 48 h
[3]; [13]
  Cmin: 0.80 ng/mL
  Tmin: 96 h
[3]; [14]
  Cmin: 3.68 ng/mL
  Tmin: 48 h
[3]; [15]
  Cmin: 1.35 ng/mL
  Tmin: 72 h
[3]; [16]
  Cmin: 5.49 ng/mL
  Tmin: 48 h
[3]; [17]
  Cmin: 3.22 ng/mL
  Tmin: 96 h
[3]; [18]
  Tmax: 2 h
  half-life: 16 h
  AUC: 226 ng·h/mL
  concentration at 48 h: 1.16 ng/mL
[3]; [19]
  Cmax: 19 ng/mL
  Tmax: 2 h
  half-life: 25.1 h
  AUC: 318 ng·h/mL
  concentration at 48 h: 2.27 ng/mL
[3]; [20]
  Cmax: 44.9 ng/mL
  Tmax: 1 h
  half-life: 17.7 h
  AUC: 666 ng·h/mL
  concentration at 48 h: 3.68 ng/mL
[3]; [21]
  Cmax: 34.9 ng/mL
  Tmax: 2 h
  AUC: 621 ng·h/mL
  concentration at 48 h: 5.03 ng/mL
[3]; [22]
  Cmax: 118 ng/mL
  Tmax: 2 h
  half-life: 13.8 h
  AUC: 1480 ng·h/mL
  concentration at 48 h: 5.49 ng/mL
[3]; [23]
  Cmax: 68.3 ng/mL
  Tmax: 2 h
  half-life: 24.3 h
  AUC: 1020 ng·h/mL
  concentration at 48 h: 6.91 ng/mL
[3]; tumor-naive mice, single and repeat administrations
  time of peak blood concentration after IP administration: ≤ 2 h
[4]; 10% plasma (diluted), estimated from 10% NSG mouse plasma, read-out: % Bound Estimated in Undiluted Plasma (converted)
  fraction unbound at 2 mM: 0.0073
[4]; 10% plasma (diluted), estimated from 10% NSG mouse plasma, read-out: % Free Estimated in Undiluted Plasma
  fraction unbound at 2 mM: 0.0073
[4]; 10% plasma (diluted), estimated from 10% NSG mouse plasma, read-out: Fu (Unbound Fraction) Estimated in Undiluted Plasma
  fraction unbound at 2 mM: 0.00728
[4]; 10% plasma (diluted, K2EDTA), 10% NSG mouse plasma (K2EDTA), read-out: % Free Measured in Diluted Plasma
  fraction unbound at 2 mM: 0.0682
[4]; 10% plasma (diluted, K2EDTA), 10% NSG mouse plasma (K2EDTA), read-out: Fu (unbound Fraction) Measured in Diluted Plasma
  fraction unbound at 2 mM: 0.0682
[4]; 10% NSG mouse plasma (K2EDTA)
  % Protein Bound Measured in Diluted Plasma: 93.18%
  % Stability in Matrix (2.5 hours): 75.1%
[5]; day 1, 2 hours following rapamycin injection
  whole blood rapamycin concentration: 0.916 ± 0.896 ng/mL
[5]; day 21, 24 hours after administration
  animals below the limit of quantitation: 3 of 5
[5]; tumor-bearing immune-compromised mice injected with SC-DARIC33
  unbound Rapamycin concentrations associated with efficacy in mice: below the unbound equivalent of the target trough concentration in pediatric patients
[6]; NSG, mouse, whole blood (K2EDTA), read-out: Kp (RBC/PL)
  Kp at 2 mM: 0.0628
[6]; Rapamycin (2 mM), NSG mouse
  % Stability in Plasma: 109.4%
[6]; Rapamycin (2 mM), NSG mouse whole blood (K2EDTA)
  Conc. in Spiked Plasma Conc. In Plasma from Spiked Blood: 0.55
clinical
  concentration at 2 h: 1.5 to 3 ng/mL
  concentration at 24 h: < 1 ng/mL
[7]; NSG, mouse, undiluted plasma (K2EDTA), read-out: Fu Unbound Fraction (Mean ± SD)
  fraction unbound at 2 mM: 0.000553 ± 0.000341
[7]; [24]
  % Protein Bound (Mean ± SD): 99.94 ± 0.03%
  % Protein Free (Mean ± SD): 0.06 ± 0.30%
  % Stability in Matrix (2.5 hours): 191.90%
Plasma protein
  fraction unbound: < 0.01
[8]
  Typical immunosuppressive trough concentrations: 5 to 15 ng/mL
[9]; after eight administrations
  trough levels vs target range 1.5-3 ng/mL: above range
[9]; following 2 administrations
  trough levels vs target range 1.5-3 ng/mL: within range
[9]; final measurement at day 28, discontinued at day 20
  level post discontinuation: undetectable
[10]; CD-1, mouse, plasma (K2EDTA), read-out: Fu Unbound Fraction (Mean ± SD)
  fraction unbound at 2 mM: 0.0007 ± 0.0002
[10]; [25]
  % Protein Bound (Mean ± SD): 99.93 ± 0.02%
  % Protein Free (Mean ± SD): 0.07 ± 0.20%
  % Stability in Matrix (2.5 hours): 104.23%
